Data published in PubChem BioAssay AID463173 (ICCB-Longwood Screening Facility, Harvard Medical School, 2010).
The campaign covered roughly 52,000 compounds. About 4,300 (8.3%) were called active. Rule as the data show it: active = survival mostly below about 52% (no sharp cut-off); inactive = mostly above about 56%. The list shows a part of the results.

Tested on: DeltatarO mutant
Assay: growth inhibition of S. aureus wild type versus tarO mutant, primary screen, teichoic acid synthesis inhibitors, RN4220, OD600 (AID 463173)
Settings: OD600, 18 h, stronger effect = lower value, screened at 18.75 µg/mL (by protocol)

Row | SMILES | survival
1 | CCOC(=O)c1ccc(NC2(c3ccccc3)C(=O)c3ccccc3C2=O)cc1 | inactive: 73%
2 | CCOC(=O)c1ccc(NC(=O)c2sc3ccccc3c2Cl)cc1 | inactive: 67%
3 | COc1ccccc1C(=O)Nc1nnc(S(=O)(=O)N2CCN(c3ccc(F)cc3)CC2)s1 | inactive: 50%
4 | Cc1ccc(-c2nnc3ccccc3c2C(=O)Nc2ccc(C)c(F)c2)cc1 | inactive: 80%
5 | COc1cccc(NC(=O)CCc2nnc3n(Cc4ccccc4Cl)c(=O)c4ccccc4n23)c1 | inactive: 93%
6 | Cc1ccc(NC(=O)c2c(C)nc3sc(C(=O)Nc4ccc(F)cc4)c(N)c3c2-c2ccc(Cl)cc2)c(C)c1 | inactive: 56%
7 | Cc1ccc(Nc2c(-c3ccc(N4CCOCC4)cc3)nc3cccc(C)n23)cc1 | inactive: 103%
8 | O=C1CC(c2nnc(Cc3c(F)cccc3Cl)o2)CN1c1ccccc1 (stereo unspecified) | inactive: 129%
9 | Cc1cccc(CN2C(=O)c3ccccc3S(=O)(=O)c3ccc(C(=O)N(C)Cc4ccccc4)cc32)c1 | inactive: 87%
10 | Cc1cccc(NC(=O)Cn2nnc(C(=O)NCc3cccs3)c2N)c1 | inactive: 90%
11 | CCC(C(=O)Nc1ccc(C(C)C)cc1)n1nc(C)n2c(cc3cc(C)ccc32)c1=O (stereo unspecified) | inactive: 70%
12 | COc1ccc(Cl)cc1NC(=O)CCn1c(=O)c2cccn2c2ccccc21 | active: 42%
13 | CN(C)c1ccc(CNC(=O)C2CCCN(S(=O)(=O)c3ccc4c(c3)CCCC(=O)N4)C2)cc1 (stereo unspecified) | inactive: 117%
14 | CC(=O)Nc1ccc(NC(NC(=O)c2ccco2)C(=O)c2ccc(Cl)cc2)cc1 (stereo unspecified) | inactive: 91%
15 | CC(=O)Nc1cc(-c2ccc(Cl)cc2)[nH]n1 | inactive: 106%
16 | Cc1ccccc1C(=O)NCc1nc(-c2ccc(Cl)cc2)no1 | active: 47%
17 | Cc1ccc(C)c(Cn2c(=O)cc(C(F)(F)F)c3c(C)nn(C)c32)c1 | inactive: 102%
18 | CCc1nnc(SCc2nc(-c3cccc(Cl)c3)oc2C)c2cc3sc(C)cc3n12 | inactive: 85%
19 | COc1cc(OC)c(NS(=O)(=O)c2cc3c(cc2C)N(C(C)=O)CCO3)cc1Cl | inactive: 89%
20 | CN(C)CCN1C(=O)c2ccccc2C1=O | inactive: 81%
21 | Cc1ccc(-c2cc3c(n2-c2ccc(C)cc2)CC(C)(C)CC3=O)cc1 | inactive: 74%
22 | Cc1ccc(-c2noc(CNC(=O)c3ccccc3)n2)cc1 | inactive: 63%
23 | CCC1CN(C(=O)N2CCC(C(=O)NCc3ccccc3C)CC2)c2ccccc2O1 (stereo unspecified) | inactive: 88%

Row | SMILES | survival
24 | CCOC(=O)C1Cc2ccccc2CN1 (stereo unspecified) | inactive: 94%
25 | CC(C)NC(=O)C1CCN(c2nc3ccccc3nc2C(F)(F)F)CC1 | inactive: 101%
26 | Cc1ccc(C2=NN(CC(=O)NCCN(CC(C)C)CC(C)C)C(=O)CC2)cc1 | inactive: 131%
27 | O=C(NCc1ccccc1)c1ccc(CSc2nc3cccnc3n2Cc2ccccc2F)cc1 | inactive: 101%
28 | Cc1ccc(Cn2c(C)c(CNCCCc3ccccc3)c(C(=O)O)c2C)cc1 | inactive: 83%
29 | CCOc1cc(S(=O)(=O)N(CC)CC)c(OCC)cc1-n1cnnn1 | inactive: 76%
30 | Cc1ccc2nc(Cl)c(CO)cc2c1 | inactive: 71%
31 | CCCCNC(=O)CSc1nnc(C)c2c(C)n(-c3ccccc3)nc12 | inactive: 75%
32 | CCCc1nc(C(C#N)c2ccc(F)cc2)c2nnn(Cc3ccccc3)c2n1 (stereo unspecified) | inactive: 90%
33 | CC1CCN(S(=O)(=O)c2ccc3c(c2)CCC(=O)N3CC(=O)Nc2cccc(C#N)c2)CC1 | inactive: 78%
34 | Cc1nc(N2CCCC2)ncc1C(=O)Nc1ccc(F)cc1F | inactive: 90%
35 | COc1ccccc1OCC(=O)Nc1nc(-c2ccc(Br)cc2)ns1 | inactive: 65%
36 | Cc1ccc(NC(=O)C2CCN(S(=O)(=O)c3c(C)noc3/C=C/c3ccco3)CC2)cc1C | inactive: 66%
37 | CC(C)N(Cc1ccccc1)C(=O)CCS(=O)(=O)c1ccc2c(c1)oc(=O)n2C | inactive: 102%
38 | Cc1ccc(S(=O)(=O)c2cn(C)c3cc(N4CCCC(C)C4)c(F)cc3c2=O)c(C)c1 (stereo unspecified) | inactive: 81%
39 | O=C(NCCOCCn1c(=O)oc2ccccc21)Nc1ccc(F)cc1 | inactive: 67%
40 | Cc1cccc(N(C)C(=O)CSc2nc3ncccc3o2)c1 | inactive: 67%
41 | Cc1ccc2c(c1)cc1c(=O)n(CC(=O)N3CCCCC3)nc(C)n12 | inactive: 90%
42 | O=C(NCC1CCCO1)c1c[nH]c2ccc(S(=O)(=O)Nc3cccc(C(F)(F)F)c3)cc2c1=O (stereo unspecified) | inactive: 80%
43 | COc1ccc2c(c1)c1c(c(=O)n(-c3ccccc3)c(=O)n1CC(=O)Nc1ccc(C)c(C)c1)n2C | inactive: 71%
44 | CN(Cc1ccccc1)S(=O)(=O)c1nnc(NC(=O)c2ccccc2)s1 | active: 26%
45 | Cc1ccc(CN2CCc3nc(N4CCN(C)CC4)ncc3C2)s1 | inactive: 82%
46 | Cc1ccc(-n2ncc3c(N4CCC(Cc5ccccc5)CC4)ncnc32)cc1 | inactive: 96%

Row | SMILES | survival
47 | Cc1c(Cl)cccc1NC(=O)Cn1cnc2nc3c(cc2c1=O)CCCC3 | inactive: 126%
48 | O=C1OC(Nc2ccc3ncccc3c2)c2ccccc21 (stereo unspecified) | active: 30%
49 | CC(C)(C)CC(=O)NC1CC(=O)N(c2ccc3c(c2)OCCO3)C1 (stereo unspecified) | inactive: 123%
50 | O=C(c1ccc2c(c1)N(Cc1ccccc1F)C(=O)c1ccccc1S2=O)N1CCOCC1 (stereo unspecified) | inactive: 88%
51 | O=C(Nc1c(C(=O)Nc2ccccc2F)oc2ccccc12)c1cc2ccccc2o1 | active: 37%
52 | Cc1ccc(C)c(CS(=O)(=O)c2cn(CC(=O)N(C(C)C)C(C)C)c3ccccc23)c1 | inactive: 63%
53 | COC(=O)CCn1cnc2onc(-c3cc(F)cc(F)c3)c2c1=O | inactive: 82%
54 | COc1cc(C(CC(=O)NCCC(C)C)N2Cc3ccccc3C2=O)cc(OC)c1OC (stereo unspecified) | inactive: 94%
55 | COc1cc(NC(=O)CN2CCN(CC(=O)Nc3ccc(F)cc3)CC2)cc(OC)c1 | inactive: 70%
56 | Cc1sc2nc(SCC(=O)N(CCO)CCO)nc(N)c2c1C | inactive: 100%
57 | N#Cc1ccc(CSc2nc3c(c(=O)[nH]2)CCCC3)cc1 | inactive: 56%
58 | CC(C)C1CC(c2csc(N)n2)CCO1 (stereo unspecified) | inactive: 78%
59 | Cc1cccc(N(C)C(=O)CCNS(=O)(=O)c2ccc3c(c2)CCN3C(=O)C2CC2)c1 | inactive: 94%
60 | CCOC(=O)c1c(NC(=O)c2cc(C)on2)sc(C)c1C | active: 47%
61 | CNC(=O)c1ccc(Nc2nnc(-c3ccc(C)c(S(=O)(=O)N4CCCCC4)c3)c3ccccc23)cc1 | active: 54%
62 | Cc1ccc(-n2ncc3c(N4CCN(C)CC4)ncnc32)cc1Cl | inactive: 96%
63 | CCOc1ccc(NC(=O)CCS(=O)(=O)c2cccc3nonc23)cc1 | inactive: 78%
64 | CCc1cccc(NC(=O)CSc2ncccc2C(=O)Oc2ccccc2Cl)c1 | inactive: 78%
65 | COc1ccc(CNC(=O)CCC(=O)N2CC3CCCN3c3ccccc32)c(OC)c1 (stereo unspecified) | inactive: 78%
66 | CCOc1ccc(C2C(=O)N(C3CCCCC3)CC(=O)N2C2CCCC2)cc1OC (stereo unspecified) | inactive: 71%
67 | COc1cc(NC(=O)Cc2c(C(=O)O)c(C)cn2C)cc(OC)c1 | inactive: 102%
68 | COc1ccc(/C=C/C(=O)Nc2sc3c(c2C(N)=O)CCC(C)C3)cc1OC (stereo unspecified) | active: 34%
69 | CCC(Sc1nc2nccnc2c(=O)n1Cc1ccc(OC)cc1)C(=O)NC1CCCCC1 (stereo unspecified) | inactive: 104%

Row | SMILES | survival
70 | CC(C)C12CN3CC(C(C)C)(CN(C1)C3c1ccc(OCc3ccccc3)cc1)C2=O (stereo unspecified) | inactive: 85%
71 | CC(C)n1c(SCC(=O)Nc2ccc(F)cc2)nc2c(oc3ccccc32)c1=O | inactive: 95%
72 | CCOc1ccccc1CNC(=O)c1ccc2c(c1)sc1nc(-c3cccc(OC)c3)cn12 | inactive: 66%
73 | COC(=O)c1cc(S(=O)(=O)NCC2CCN(Cc3ccc(C)cc3)CC2)c[nH]1 | inactive: 118%
74 | CCOc1ccc(-n2c(SCC(=O)Nc3ccc(F)cc3)nc3c([nH]c4ccccc43)c2=O)cc1 | inactive: 69%
75 | NC(=O)c1cc2ccc(O)cc2oc1=O | inactive: 74%
76 | C=CCn1c(=S)[nH]c2ccccc2c1=O | inactive: 95%
77 | Cc1cc(C)c2c(=O)cc(C(=O)Nc3sc4c(c3C(=O)NCc3cccnc3)CCCC4)oc2c1 | inactive: 68%
78 | O=C(Cc1c(F)cccc1Cl)NCCCn1ccnc1 | inactive: 107%
79 | CCCn1c(-c2cccc(Br)c2)nc2ccccc21 | active: -4%
80 | CCCN1C(=O)C(Cc2nc3ccccc3c(=O)n2-c2cccc(C)c2)c2ccccc21 (stereo unspecified) | active: 36%
81 | Cn1ncc(C(=O)N2CCN(c3ccc(F)cc3)CC2)c1C1CCN(C(=O)OC(C)(C)C)CC1 | inactive: 95%
82 | CCCC(c1nnnn1CC1CCCO1)N(Cc1cc2cc(C)cc(C)c2[nH]c1=O)C1CCCC1 (stereo unspecified) | inactive: 81%
83 | CC(C)(C)OC(=O)N1CCC(c2nnc(SCc3ccccc3)o2)CC1 | inactive: 96%
84 | O=C1OC(C(=O)Nc2ccc(Cl)c(C(F)(F)F)c2)Cc2ccccc21 (stereo unspecified) | inactive: 55%
85 | COc1ccccc1CNC(=O)c1ccc(N2Cc3cccc(OC)c3Oc3ncccc32)s1 | inactive: 79%
86 | COc1ccc(-c2noc(-c3ccc(N4CCCCC4C)c([N+](=O)[O-])c3)n2)cc1OC (stereo unspecified) | inactive: 104%
87 | Cc1ccccc1NC(=O)C(C)Sc1nnc(-c2ccccc2C)o1 (stereo unspecified) | inactive: 74%
88 | Cc1ccc(C(=O)n2nc(C)c(S(=O)(=O)N3CCCCCC3)c2C)cc1 | inactive: 91%
89 | COc1cccc(C2C(C(=O)Nc3ccccc3)=C(C)Nc3nc(-c4ccccc4)nn32)c1OC (stereo unspecified) | inactive: 158%
90 | C=CCNCc1cc2cc(C)cc(C)c2[nH]c1=O | inactive: 69%
91 | Cc1cccc(-c2noc(-c3ccc(N4CCN(C)CC4)c([N+](=O)[O-])c3)n2)c1 | active: 22%
